Measured values reported in PubChem BioAssay AID1240 (Sanford-Burnham Center for Chemical Genomics, 2008).
Among all 50,000 compounds or so, about 800 (1.6%) showed an effect of 50% or more. Some of the results follow.

biological target: Bcl-2-like protein 10 (Homo sapiens) (UniProt Q9HD36); assay: TR3 peptide-Bcl-B binding displacers, biochemical primary FP assay, phenotype converters (AID 1240); settings: GST-Bcl-B / FITC-TR3 peptide fluorescence polarization; stronger effect = higher value; compound at 3.75 mg/L;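 note: 0% = Bcl-B with tracer peptide and DMSO and 100% = tracer peptide lacking Bcl-B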
UniProt Q9HD36, sequence (Q9HD36 whole entry, looked up): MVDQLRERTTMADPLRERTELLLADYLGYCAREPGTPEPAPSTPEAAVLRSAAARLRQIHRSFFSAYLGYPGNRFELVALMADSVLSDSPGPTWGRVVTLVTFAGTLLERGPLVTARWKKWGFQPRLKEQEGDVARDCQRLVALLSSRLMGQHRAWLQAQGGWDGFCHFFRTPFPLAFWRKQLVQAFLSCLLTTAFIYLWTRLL

CCOC(=O)C(=O)N1c2ccccc2C(Nc2ccccc2)CC1C (centres undefined) was tested. Which displacement did it give?
The displacement was -2.2%.

Cc1ccc(C2CC(C(F)(F)F)n3nc(C(=O)N4CCN(C)CC4)c(Cl)c3N2)cc1 (centres undefined) was tested. Which displacement did it give?
The displacement was 0.6%.

How did the displacement turn out when CCc1c(C)sc(NC(=O)c2c(-c3ccccc3Cl)noc2C)c1C(N)=O was run?
Its displacement is -11.8%.

For O=C(Nc1ccc(-c2nc3ccccc3o2)c(O)c1)c1ccc(-c2cccc([N+](=O)[O-])c2)o1, which displacement is on record?
Its displacement is 1.9%.

O=C(Nc1ccc(/C=C/C(=O)c2cccs2)cc1)c1ccc(Br)cc1 was tested. Which displacement did it give?
Its displacement is 13.1%.

How did the displacement turn out when CN1C(=O)CS/C1=N/S(=O)(=O)c1ccc([N+](=O)[O-])cc1 was run?
The displacement was -3.6%.

For O=C(Nc1ccc2c(c1)OCO2)c1ccc(C#Cc2ccccc2)cc1, which displacement is on record?
The displacement was -2.8%.

For Cn1c(=O)c([N+](=O)[O-])c(NCCCO)c2ccccc21, which displacement is on record?
The displacement was -4.7%.

O=S(=O)(c1ccc2ccccc2c1)N1CCN(c2ccccc2)CC1 was tested. Which displacement did it give?
Its displacement is 0.6%.

NC(=O)c1ccccc1NC(=O)c1ccc(I)cc1 was tested. Which displacement did it give?
The displacement was 7.7%.

How did the displacement turn out when O=C(N/N=C/c1cccc2ccccc12)c1cc(-c2cccc3ccccc23)n[nH]1 was run?
Its displacement is -21.5%.

How did the displacement turn out when CCCCOc1ccc(/C=N/N2CCN(C)CC2)cc1 was run?
Its displacement is -4%.

For CC(C)CC(/C(O)=C(\C#N)c1nc2ccccc2[nH]1)N1C(=O)c2ccccc2C1=O (centres undefined), which displacement is on record?
The displacement was 6.4%.

How did the displacement turn out when CCOC(=O)c1ccc(-n2c(C)cc(C=O)c2C)cc1 was run?
Its displacement is 3%.

CC1(C)CC(NC(=O)c2cccc([N+](=O)[O-])c2)CC(C)(C)N1 was tested. Which displacement did it give?
Its displacement is -7.3%.

For O=C(NC(=S)Nc1ccc(Cl)c(Cl)c1)c1ccc(Cl)cc1, which displacement is on record?
Its displacement is -5.3%.

Which displacement does the source give for O=C(NC(=S)Nc1ccccc1C(F)(F)F)c1ccco1 here?
Its displacement is 1.8%.

For O=S(=O)(Nc1ccccc1)c1cc(S(=O)(=O)Nc2ccccc2)c2cc(O)ccc2c1, which displacement is on record?
The displacement was -10.9%.

CN1C2C=C(N(CCc3c[nH]c4ccccc34)C(=O)c3ccc(F)cc3)CC1CC2 (centres undefined) was tested. Which displacement did it give?
The displacement was -5.3%.

How did the displacement turn out when CCOC(=O)/C=C/C(=O)Nc1nc(-c2ccc3ccccc3c2)cs1 was run?
The displacement was -8.3%.

How did the displacement turn out when CC(C)CCOc1ccc(CN=C(N)N=C(N)N)cc1Cl was run?
Its displacement is -3.3%.

O=C1c2ccc(Oc3ccc([N+](=O)[O-])cc3)cc2C(=O)N1CCO was tested. Which displacement did it give?
Its displacement is 4.9%.

How did the displacement turn out when CCOc1cc(/C=C2/C(=O)NC(=O)N(C)C2=O)cc(Br)c1O was run?
The displacement was -1.5%.

How did the displacement turn out when O=[N+]([O-])c1cccc(C2=Nn3c(Cc4ccccc4)nnc3SC2)c1 was run?
The displacement was 7.8%.

How did the displacement turn out when CC(C)CNC(=O)C1CC(=O)N(c2ccc(Cl)cc2)C1 (centres undefined) was run?
The displacement was -0.2%.

With CN(C)/C=C1\N=C(c2ccccc2)OC1=O as the compound, how does the displacement read?
Its displacement is 9.3%.

For COCC(C)NCc1ccc(OC)cc1 (centres undefined), which displacement is on record?
The displacement was 6.6%.

How did the displacement turn out when COc1ccc(NC(=O)COc2cccc3ccccc23)c([N+](=O)[O-])c1 was run?
The displacement was 0.4%.

Cc1cc(C)c2nc3s/c(=C/c4cccn4-c4ccc([N+](=O)[O-])cc4)c(=O)n3c2c1 was tested. Which displacement did it give?
Its displacement is 1.7%.

For O=C(N/C(=C/c1ccccc1)C(=O)N1CCCCC1)c1ccco1, which displacement is on record?
Its displacement is 1.4%.

CCOC(=O)c1c(N)n(-c2ccccc2O)c2nc3ccccc3nc12 was tested. Which displacement did it give?
The displacement was 19.7%.

With CCOC(=O)C1=NNC2C(=O)N(Cc3ccccc3)C(=O)C12 (centres undefined) as the compound, how does the displacement read?
The displacement was 3.9%.

With CCc1c(C)c(C#N)c2nc3ccccc3n2c1N1CCN(C2=NCC(C)(C)S2)CC1 as the compound, how does the displacement read?
Its displacement is -5.3%.

CCOc1cc(C=C2C(=O)NC(=O)NC2=O)ccc1OCc1c(C)no[n+]1[O-] was tested. Which displacement did it give?
The displacement was 108%.

With CCN(CC)c1ccc(/C=C(\NC(=O)c2ccccc2)C(=O)NN)cc1 as the compound, how does the displacement read?
The displacement was -10.2%.

With Cc1cccc(Nc2nc(-c3c(C)nc4ccccn34)cs2)c1 as the compound, how does the displacement read?
Its displacement is 8%.

For COc1ccc(CN2CC=C(Cc3ccccc3)CC2)cc1, which displacement is on record?
The displacement was -11%.

O=C(c1cccc(Br)c1)N1N=C(c2ccccc2)CC1(O)C(F)(F)F (centres undefined) was tested. Which displacement did it give?
The displacement was -4.5%.

With COc1ccc(C(=O)N2CCN(c3ccccc3OC)CC2)cc1 as the compound, how does the displacement read?
The displacement was -6.7%.

How did the displacement turn out when COc1ccc(N(CC(O)Cn2c3ccccc3c3ccccc32)S(C)(=O)=O)cc1 (centres undefined) was run?
The displacement was 10.6%.

How did the displacement turn out when Cc1cccc(Cc2cnc(N)s2)c1 was run?
Its displacement is 10.5%.

O=C(O)CCC(=O)NCc1ccc(Cl)cc1 was tested. Which displacement did it give?
Its displacement is -11.3%.

With CCN1C(=O)/C(=C2\SC(=S)N(C3CCS(=O)(=O)C3)C2=O)c2ccccc21 (centres undefined) as the compound, how does the displacement read?
The displacement was 3.9%.

C=CCn1c(SCC(=O)O)nnc1-c1ccncc1 was tested. Which displacement did it give?
Its displacement is -5.8%.

Which displacement does the source give for O=C(Nc1ccc(Cl)cn1)c1cccc2c(Br)cccc12 here?
Its displacement is 6.2%.

For N#Cc1c(NC(=O)C2CC2)sc2c1CCCCC2, which displacement is on record?
Its displacement is 7.3%.

C(=C\c1ccccc1)/CSc1nnc(-c2cccs2)n1-c1ccccc1 was tested. Which displacement did it give?
The displacement was 3%.

CC1CCc2c(sc(NC(=O)C3CC=CCC3C(=O)O)c2C(N)=O)C1 (centres undefined) was tested. Which displacement did it give?
Its displacement is -4.2%.

How did the displacement turn out when CCOC(=O)c1c(NC(=S)NC(=O)c2ccc(OC)cc2)sc(C)c1C was run?
Its displacement is 5.2%.

How did the displacement turn out when CCOC(=O)Oc1ccc2c(=O)c(Oc3ccc(OC)cc3)c(C(F)(F)F)oc2c1 was run?
Its displacement is -7.3%.

Which displacement does the source give for CCOc1ccc(N(CC(=O)NCC(C)c2ccccc2)S(=O)(=O)c2ccccc2)cc1 (centres undefined) here?
The displacement was -6.5%.

Which displacement does the source give for O=C(Nc1ccc(Cl)cc1C(O)c1ccccc1)c1cnn2c1NC(c1ccccc1)CC2C(F)(F)F (centres undefined) here?
Its displacement is -0.6%.

Which displacement does the source give for O=C(Nc1cccc(-c2nc3ccccc3s2)c1)c1ccc(F)c(F)c1 here?
The displacement was -5.4%.

For O=C(COC(=O)c1ccc(C#CC2(O)CCCCC2)cc1)c1ccc(Br)cc1, which displacement is on record?
The displacement was 2.4%.

With CCOC(=O)C(C(=O)OCC)c1cc(Nc2cccc(C)c2)c2c3c(onc13)-c1ccccc1C2=O as the compound, how does the displacement read?
Its displacement is 11.8%.

For NS(=O)(=O)c1ccc(CCNC2CC(=O)N(c3ccc(I)cc3)C2=O)cc1 (centres undefined), which displacement is on record?
The displacement was -19.5%.

For CN1CCC(=NNC(=O)C(=O)NCC2CCCO2)CC1 (centres undefined), which displacement is on record?
Its displacement is -16.4%.

For CCCc1ccccc1OCCNc1nc2c(c(=O)n(C)c(=O)n2C)n1C, which displacement is on record?
The displacement was -8.9%.

CC(C)=CC1C(C(=O)Nc2ccc(Cl)cn2)C1(C)C (centres undefined) was tested. Which displacement did it give?
Its displacement is -9.1%.

Cc1ccccc1OCCCNCC1CCCO1 (centres undefined) was tested. Which displacement did it give?
The displacement was 11.6%.

CCN(CC)c1ccc(N2C(=O)/C(=C/c3ccc(Cl)cc3)SC2=S)cc1 was tested. Which displacement did it give?
The displacement was 12.8%.

For CCOc1ccc(-n2c(CN3C(=O)c4ccccc4C3=O)nc3ccccc3c2=O)cc1, which displacement is on record?
Its displacement is 8.3%.

How did the displacement turn out when CCOC(=O)c1ccc(NC(=O)CN(c2cccc([N+](=O)[O-])c2)S(=O)(=O)c2ccccc2)cc1 was run?
The displacement was 8.5%.

Which displacement does the source give for COc1cccc(/C=N/NC(=O)c2cnccn2)c1O here?
Its displacement is -22.1%.

For O=C(CNC(=O)c1ccc(Br)cc1)c1ccc(Cl)cc1, which displacement is on record?
Its displacement is -4.3%.

O=C(N/N=C/C=C/c1ccccc1)c1cc(C2CC2)[nH]n1 was tested. Which displacement did it give?
Its displacement is -4%.

Cc1ccc(OCC(=O)Nc2ccccc2[N+](=O)[O-])c(C)c1 was tested. Which displacement did it give?
The displacement was 9.6%.

For Cc1cc(=O)oc2cc(OC/C(=N\O)c3ccc(Cl)cc3)c(Cl)cc12, which displacement is on record?
The displacement was -4.6%.

O=C(/C=C/c1ccc(Br)cc1)NC(=S)N1CCOCC1 was tested. Which displacement did it give?
The displacement was 8.5%.
